Source: article PMC4336329 (PLoS ONE, 2015)
The campaign covered roughly 310,000 compounds. About 2,200 (0.71%) showed an effect of 50% or more. The effect is printed as a negative number. This is one part of the list.

target: human ether-à-go-go-related gene (hERG) potassium channel (human, UniProt Q12809); experiment: primary screen, population patch clamp on CHO cells stably expressing hERG
Sequence (Q12809 whole entry, looked up): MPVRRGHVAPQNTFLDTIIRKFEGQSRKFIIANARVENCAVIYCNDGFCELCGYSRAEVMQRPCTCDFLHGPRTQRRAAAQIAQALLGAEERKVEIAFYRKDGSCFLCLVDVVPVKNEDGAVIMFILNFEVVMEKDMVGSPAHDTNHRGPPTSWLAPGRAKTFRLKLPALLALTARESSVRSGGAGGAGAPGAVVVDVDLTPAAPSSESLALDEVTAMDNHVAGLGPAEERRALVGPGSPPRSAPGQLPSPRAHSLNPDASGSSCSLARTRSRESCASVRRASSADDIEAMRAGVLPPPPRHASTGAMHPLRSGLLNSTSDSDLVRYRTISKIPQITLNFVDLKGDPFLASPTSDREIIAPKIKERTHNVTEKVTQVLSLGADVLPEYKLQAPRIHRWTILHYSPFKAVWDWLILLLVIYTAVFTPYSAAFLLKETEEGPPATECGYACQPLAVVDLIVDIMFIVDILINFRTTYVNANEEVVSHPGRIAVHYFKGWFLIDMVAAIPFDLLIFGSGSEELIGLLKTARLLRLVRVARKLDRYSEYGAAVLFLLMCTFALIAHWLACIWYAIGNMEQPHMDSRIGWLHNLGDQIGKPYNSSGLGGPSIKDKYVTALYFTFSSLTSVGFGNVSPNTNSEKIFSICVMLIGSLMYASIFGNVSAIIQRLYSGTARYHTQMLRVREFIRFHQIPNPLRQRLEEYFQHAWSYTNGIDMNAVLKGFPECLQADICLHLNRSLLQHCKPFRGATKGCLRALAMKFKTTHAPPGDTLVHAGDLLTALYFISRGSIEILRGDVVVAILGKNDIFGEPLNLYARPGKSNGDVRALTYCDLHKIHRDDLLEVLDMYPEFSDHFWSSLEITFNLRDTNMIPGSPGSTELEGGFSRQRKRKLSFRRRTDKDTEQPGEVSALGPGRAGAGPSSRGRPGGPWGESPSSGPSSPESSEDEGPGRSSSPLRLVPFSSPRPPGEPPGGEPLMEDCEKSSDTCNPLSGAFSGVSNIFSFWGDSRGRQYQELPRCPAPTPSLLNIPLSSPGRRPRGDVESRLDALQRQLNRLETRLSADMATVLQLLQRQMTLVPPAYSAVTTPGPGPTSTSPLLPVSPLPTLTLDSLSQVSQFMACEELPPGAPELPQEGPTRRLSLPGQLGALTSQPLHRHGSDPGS

| SMILES | hERG current change (%, negative = inhibition) at 1uM [%] |
| --- | --- |
| O=C(CN(Cc1ccccc1F)C(=O)Cn1nnc(-c2cccs2)n1)NCC1CCCO1 (stereo not drawn) | 2.8 |
| CCCC(=O)N1CCN(c2ccc(NC(=O)c3sc4ccccc4c3Cl)cc2)CC1 | 12.2 |
| CNS(=O)(=O)c1cccc(C(=O)OCC(=O)Nc2ccc(Cl)cn2)c1 | 1.47 |
| COc1cc(C(C(=O)NC2CCCCC2)N(Cc2cccs2)C(=O)Cc2c[nH]c3ccccc23)cc(OC)c1OC (stereo not drawn) | 12.3 |
| O=S1OC(c2ccccc2)c2cc(Cl)ccc21 (stereo not drawn) | 7.85 |
| Cc1cc(=O)n(CCc2ccccc2)c(O)c1C#N | 27.3 |
| O=C1CC[C@@H](O)CCN1CC[C@H](Sc1ccccc1)c1ccccc1 | -0.164 |
| Cc1ccc(C)c(S(=O)(=O)N2CCCCC2CCNC(=O)C(=O)NC2CC2)c1 (stereo not drawn) | 5.4 |
| O=C(CN1C(=O)C2C3C=CC(C3)C2C1=O)Nc1cccc2c1CCCC2 (stereo not drawn) | 7.04 |
| O=C(CN(c1ccccc1F)S(=O)(=O)c1ccccc1)N1CCCCCC1 | 6.48 |
| Cn1nnnc1SCC(=O)Nc1ccccn1 | 8.35 |
| COc1ccc(C)cc1NC(=O)CN(C)S(=O)(=O)c1ccc2c(c1)n(C)c(=O)c(=O)n2C | 18.4 |
| COc1cc(NS(=O)(=O)c2ccc(NC(=O)/C(=C/c3ccccc3Cl)NC(=O)c3ccccc3)cc2)nc(OC)n1 | 7.79 |
| CCCOc1ccc(C2C(=O)N(C3CCCCC3)CC(=O)N2C2CC2)cc1OC (stereo not drawn) | 10.8 |
| CCCCc1ccc(S(=O)(=O)N/N=C(/C)c2ccncc2)cc1 | 11.9 |
| O=C(C1CC1)N1CCCN(C(=O)C2CC2)CC1 | 20.1 |
| O=C(COc1ccc(Br)cc1)NCCCN1CCCC1=O | 11 |
| COc1cc2nc(NCCCN3CCN(C)CC3)n3nc(-c4ccccc4)nc3c2cc1OC | 5.18 |
| Cc1cc(OCC(=O)Nc2ccc(OCc3ccccc3)cc2)nc(C(C)C)n1 | -11.1 |
| CC1Cc2ccccc2N1C(=O)CSc1nnnn1Cc1ccccc1 (stereo not drawn) | -4.73 |
| O=C(CN1C(=O)C2C3C=CC(C3)C2C1=O)NCc1ccccc1 (stereo not drawn) | 3.17 |
| NC(=S)N/N=C1\CC(n2nnnc2-c2ccccc2Cl)C2COC1O2 (stereo not drawn) | -15.4 |
| Cn1c2ccccc2c2cc(/C=N/NC(=O)c3cc(O)ccc3O)ccc21 | 4.21 |

| SMILES | hERG current change (%, negative = inhibition) at 1uM [%] |
| --- | --- |
| COC(CNC(=O)Cn1ncc2ccsc2c1=O)OC | 17.1 |
| CCN1C(=O)[C@@H]2[C@@H](c3ccc(-c4ccc(OC)cc4)c(OC)c3)N3CCC[C@@]3(C(=O)OC)[C@@H]2C1=O.O=C(O)C(F)(F)F | 15.8 |
| CCOC(=O)C1CCN(S(=O)(=O)c2ccccc2[N+](=O)[O-])CC1 | 12.1 |
| CCn1nc(C)c(NC(=O)/C=C/c2ccc(OC)c(COc3ccc(Br)cc3)c2)c1C | -3.7 |
| Cc1cc(C)c2c(N)c(C(=O)c3ccc(Cl)cc3)sc2n1 | 12 |
| Cc1ccc(-n2nnnc2SCC(=O)c2cc(C)n(-c3cc(C)on3)c2C)cc1 | 7.56 |
| CC(=O)Nc1cccc(-c2cn3ccccc3n2)c1 | -6.8 |
| CC(OC(=O)CCC(=O)c1ccccc1)C(=O)Nc1ccc(F)cc1 (stereo not drawn) | -299 |
| CCOC(=O)C1C(CC)NC(=S)NC1(C)O (stereo not drawn) | 19.9 |
| COc1cc2[nH]c(=S)nc(Nc3ccc(NC(C)=O)cc3)c2cc1OC | 3.3 |
| CC(=O)Nc1ccc(NC(=O)C2CCCN2S(=O)(=O)c2cccc3nsnc23)cc1 (stereo not drawn) | 14.6 |
| Cn1nccc1NC(=O)CC(CC(=O)O)c1ccccc1 (stereo not drawn) | 9.27 |
| CCOC(=O)C1CCCN(c2ncnc3c2cnn3-c2ccc(Cl)cc2)C1 (stereo not drawn) | -4.31 |
| COc1ccc(CC(=O)Nc2ccccc2N2CCCCC2)cc1OC | 7.66 |
| COC(=O)c1ccc(OC(=O)c2ccccc2F)cc1 | 17.2 |
| CC[C@]12CCCN3CCc4c(n(c5ccccc45)[C@@](O)(C(=O)OC)C1)[C@@H]32 | -85.4 |
| CC1CCC(C(C)C)C(OCC(O)C[N+]2(C)CCCCC2)C1.[I-] (stereo not drawn) | 6.56 |
| Cc1ccc2nc(Cl)c(CNCc3ccccc3)cc2c1 | 7.25 |
| Cc1ccc2cc(C#N)c(NCCNC(=O)C3CCC3)nc2c1C | 5.66 |
| COc1cccc(NC(=O)CN(C)C(=O)CNC(=O)c2sc3ccccc3c2Cl)c1 | 11.5 |
| CC/C(=N\NC(=O)c1csc(C)c1C)c1cccs1 | 13 |
| Cc1ccc(CN2C(=NC(=O)CCC(=O)O)SC3CS(=O)(=O)CC32)cc1 (stereo not drawn) | 9.14 |
| COc1ccc(S(=O)(=O)N2CCOCC2)cc1C(=O)NC1CCCCCC1 | 7.41 |

| SMILES | hERG current change (%, negative = inhibition) at 1uM [%] |
| --- | --- |
| COC(=O)CN(c1ccc(OCc2ccccc2)cc1)S(C)(=O)=O | 5.03 |
| CCC(C(=O)OC)n1cnc2c(nnn2-c2ccccc2)c1=O (stereo not drawn) | -0.92 |
| COc1cccc(CNC(=O)CCc2ccc(OC)c(OC)c2)c1 | 8.83 |
| CCOc1ccc2nc(NC(=O)C3CCN(S(=O)(=O)c4cnc[nH]4)CC3)sc2c1 | 2.22 |
| COc1cc2c(cc1OC)/C(=C/C(=O)N1CCOCC1)NC(C)(C)C2.Cl | 13.1 |
| COc1ccc(S(=O)(=O)N(C)CC(=O)NC2CC2)cc1 | 6.72 |
| COc1cccc(OC)c1C(=O)NCCc1ccccc1 | 12.6 |
| O=C1Nc2ccccc2C(=O)N2[C@H](c3ccccc3)[C@@H]3C(=O)N(Cc4ccccc4)C(=O)[C@@H]3[C@H]12 | 4.42 |
| CC1SC(c2ccc(Cl)cc2)NC1=O (stereo not drawn) | 15 |
| O=Cc1c(N2CCOCC2)nc2ccccn2c1=O | 13.3 |
| COC(=O)c1ccc(NC(=O)CN2CCN(c3ccc(Cl)cc3)CC2)cc1 | 14.5 |
| COCc1c(C(N)=O)nnn1-c1nonc1N | 11 |
| C/C(=N\O)C(=O)NCC1CCNCC1 | 7.76 |
| C=CCOC(=O)C1=C[C@H](c2csc3ccccc23)C[C@H](OCc2ccc(CO)cc2)O1 | 14 |
| NC(=O)c1ccc(NC(=O)CN2CCN(c3ccccc3)CC2)cc1 | 13.5 |
| CCCCCSc1nncc(=O)[nH]1 | -8.26 |
| CCc1ccc(OCCSc2nc3ccccc3n2CCC(=O)O)cc1 | 22.1 |
| O=C1CC2CS(=O)(=O)CC2N1c1ccc(Oc2ccccc2)cc1 (stereo not drawn) | 9.35 |
| N#Cc1ccccc1NC(=O)c1cccc(COc2ccc(Cl)cc2Cl)c1 | 10.7 |
| O=C1CCNc2ccc(-c3ccccc3)cc21 | 3.55 |
| COc1ccc(C(C)NC(=O)C2CCCO2)cc1OC (stereo not drawn) | -0.285 |
| Cc1ccc2oc(=O)c3cc(C(=O)NCCCN4CCc5ccccc5C4)sc3c2c1 | 10.3 |
| CCCCN(CC)CCNC(=O)CNC(=O)Cn1ccc2ccccc2c1=O | 10.2 |

| SMILES | hERG current change (%, negative = inhibition) at 1uM [%] |
| --- | --- |
| O=C(NCCCO)C(=O)NCCc1ccc(Cl)cc1 | 5.22 |
| O=C(CCc1ccccc1)NNC(=O)c1cccc(F)c1 | 16.1 |
| O=C(NCCOc1ccccc1F)Nc1ccc(Br)cc1 | 15.6 |
| Cc1ccnc2nc(C(=O)OCC(=O)NCc3cccc(Cl)c3)nn12 | -3.99 |
| N#Cc1nc(-c2ccc(F)cc2)oc1NCc1ccccc1 | 8.86 |
| COc1ccc(Cc2nnc(NC(=O)c3ccccc3Cl)s2)cc1OC | 15.1 |
| CN(Cc1ccccc1)c1c([N+](=O)[O-])c(=O)n(C)c2ccccc12 | 11.3 |
| Fc1ccc(C2=Nc3cccc4cccc(c34)N2)cc1 | 16.6 |
| CCOc1ccc(OCCCCNC(C)(C)C)cc1.O=C(O)C(=O)O | 11.5 |
| Cc1ccccc1C(=O)NC1CCN(CC(=O)Nc2ccc3c(c2)OCCO3)CC1 | 9.88 |
| Cc1ccc(-n2nc(C)c(=O)c(-c3ccccc3)c2NC(=O)C(C)C)cc1 | 16.2 |
| COc1ccc(CCNc2nc(C)cc(=O)[nH]2)cc1OC | -1.28 |
| CC(C)C(=O)Nc1ccc(NC(=O)c2ccccc2Cl)nc1 | 9.57 |
| CC(=O)Nc1nc(-c2ccccc2)c(-c2ccccc2)o1 | -2.83 |
| Cc1c(C(=O)N/N=C/c2ccccc2)[nH]c2c([N+](=O)[O-])cccc12 | 12.3 |
| COc1ccc(-n2ncc3c2CC(C)(C)CC3NC(=O)CCC2=NNC(=O)CC2)cc1 (stereo not drawn) | 17.7 |
| CN1/C(=C\C(=O)C(F)F)C(C)(C)c2ccccc21 | 6.69 |
| Clc1cccc(N=NN2CCOCC2)c1Cl | 11.4 |
| COC(=O)/C=C1/SC(=NC(=O)c2ccc(F)cc2)NC1=O | -0.886 |
| COc1ccc(CN(Cc2cccnc2)S(=O)(=O)c2ccc(-n3cnnn3)c(C)c2)cc1OC | -12.8 |
| O=C(CSc1nnc(CNC(=O)c2ccc(F)cc2)o1)NCC1CCCO1 (stereo not drawn) | 9.07 |
